These are yes or no findings as the source states them, for the method shown. Some entries that bind do so weakly or less than the wild type. Blank lines part the entries; values can stand above or below the molecule they belong to.
How the values were obtained:
[1] = target: T1, mCherry-MYO10-SLC26A4-Ct (NanoSPD bait) (mouse) (UniProt Q9R155); experiment: NanoSPD (nanoscale pulldown); HeLa cells coexpressing mCherry-MYO10-fused SLC26A4-Ct bait and EGFP-fused μ2 prey; prey fluorescence at filopodia tips quantified
T1 sequence: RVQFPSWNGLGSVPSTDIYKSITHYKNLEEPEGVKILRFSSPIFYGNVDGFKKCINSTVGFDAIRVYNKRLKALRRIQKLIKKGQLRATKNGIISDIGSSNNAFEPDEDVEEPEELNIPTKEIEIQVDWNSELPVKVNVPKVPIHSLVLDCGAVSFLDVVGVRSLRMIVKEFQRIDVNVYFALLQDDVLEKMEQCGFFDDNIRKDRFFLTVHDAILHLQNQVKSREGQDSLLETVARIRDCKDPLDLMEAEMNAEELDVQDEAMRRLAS

Protein sequences, listed by entry. Tags and fused reporters are not part of them. Lines headed by an entry give the natural chain unless they say otherwise; changes in a name come on top. Residues count along the entry.
UniProt P84091: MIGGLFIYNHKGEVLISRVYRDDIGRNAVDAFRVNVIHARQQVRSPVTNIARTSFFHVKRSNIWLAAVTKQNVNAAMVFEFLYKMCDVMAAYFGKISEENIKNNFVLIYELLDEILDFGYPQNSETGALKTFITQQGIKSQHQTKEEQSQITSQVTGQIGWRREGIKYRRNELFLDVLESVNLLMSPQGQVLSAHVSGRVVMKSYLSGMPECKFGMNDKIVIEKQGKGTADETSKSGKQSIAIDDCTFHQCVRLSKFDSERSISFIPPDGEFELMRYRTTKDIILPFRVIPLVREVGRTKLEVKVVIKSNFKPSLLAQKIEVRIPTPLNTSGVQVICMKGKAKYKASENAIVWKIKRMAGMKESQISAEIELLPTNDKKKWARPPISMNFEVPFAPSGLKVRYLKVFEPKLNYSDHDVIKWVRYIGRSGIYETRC
EGFP-MYO10-μ2-MID (NanoSPD bait of the reciprocal experiments): residues 124-435 of P84091

[2] = target: T2, SLC26A4-Ct Y691A, yeast two-hybrid bait (mouse) (UniProt Q9R155); experiment: two-hybrid; pairwise yeast two-hybrid assays; bait and prey coexpressed in yeast, growth on selective medium without histidine (-His) against nonselective control; N = 3
T2 sequence: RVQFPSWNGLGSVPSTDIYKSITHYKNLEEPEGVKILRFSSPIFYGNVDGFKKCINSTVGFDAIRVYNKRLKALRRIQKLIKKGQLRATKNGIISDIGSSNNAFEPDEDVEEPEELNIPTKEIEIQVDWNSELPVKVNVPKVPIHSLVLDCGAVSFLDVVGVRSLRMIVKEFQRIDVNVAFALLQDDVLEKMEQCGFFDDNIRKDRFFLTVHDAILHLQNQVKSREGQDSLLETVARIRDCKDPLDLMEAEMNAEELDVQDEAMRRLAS

[3] = target: T3, SLC26A4-Ct mutated at all four tyrosine-based motifs (Y530A, Y536A, Y556A, and Y691A), yeast two-hybrid bait (mouse) (UniProt Q9R155); experiment: as above
T3 sequence: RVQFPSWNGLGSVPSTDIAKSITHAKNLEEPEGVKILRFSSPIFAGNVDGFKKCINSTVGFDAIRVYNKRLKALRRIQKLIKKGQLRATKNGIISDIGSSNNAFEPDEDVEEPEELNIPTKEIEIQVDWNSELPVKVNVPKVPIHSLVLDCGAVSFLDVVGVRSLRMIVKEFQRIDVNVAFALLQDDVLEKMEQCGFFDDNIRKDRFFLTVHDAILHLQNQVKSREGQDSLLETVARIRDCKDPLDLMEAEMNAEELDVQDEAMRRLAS

[4] = target: T4, SLC26A4-Ct Y536A, yeast two-hybrid bait (mouse) (UniProt Q9R155); experiment: as above
T4 sequence: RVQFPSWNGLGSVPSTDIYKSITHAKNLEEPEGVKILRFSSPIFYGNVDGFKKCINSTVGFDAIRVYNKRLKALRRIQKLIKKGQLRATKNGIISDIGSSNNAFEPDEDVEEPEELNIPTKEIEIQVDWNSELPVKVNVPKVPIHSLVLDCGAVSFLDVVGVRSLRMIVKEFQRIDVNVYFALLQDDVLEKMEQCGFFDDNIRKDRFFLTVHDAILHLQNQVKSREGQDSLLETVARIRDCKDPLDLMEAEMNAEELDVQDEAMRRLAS

[5] = target: T5, SLC26A4-Ct Y530A, yeast two-hybrid bait (mouse) (UniProt Q9R155); experiment: as above
T5 sequence: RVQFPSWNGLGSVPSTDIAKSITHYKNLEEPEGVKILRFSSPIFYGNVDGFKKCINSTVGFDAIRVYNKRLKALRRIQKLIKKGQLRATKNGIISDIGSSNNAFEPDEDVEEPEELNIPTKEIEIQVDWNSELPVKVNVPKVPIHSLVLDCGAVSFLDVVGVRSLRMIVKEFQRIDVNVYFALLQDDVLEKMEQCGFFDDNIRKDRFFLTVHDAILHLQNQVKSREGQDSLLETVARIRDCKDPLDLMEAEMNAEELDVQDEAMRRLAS

[6] = target: T6, cytosolic C-terminal region of mouse SLC26A4 (SLC26A4-Ct, residues 512 to 780), yeast two-hybrid bait (mouse) (UniProt Q9R155); experiment: as above
T6 sequence: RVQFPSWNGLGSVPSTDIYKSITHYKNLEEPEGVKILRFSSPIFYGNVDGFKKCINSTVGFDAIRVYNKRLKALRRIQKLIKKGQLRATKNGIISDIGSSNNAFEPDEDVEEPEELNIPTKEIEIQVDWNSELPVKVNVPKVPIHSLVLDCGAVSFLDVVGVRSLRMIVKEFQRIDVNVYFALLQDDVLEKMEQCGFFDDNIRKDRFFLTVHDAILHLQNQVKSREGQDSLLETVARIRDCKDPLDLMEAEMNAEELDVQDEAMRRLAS

[7] = target: T7, SLC26A4-Ct Y556A, yeast two-hybrid bait (mouse) (UniProt Q9R155); experiment: as above
T7 sequence: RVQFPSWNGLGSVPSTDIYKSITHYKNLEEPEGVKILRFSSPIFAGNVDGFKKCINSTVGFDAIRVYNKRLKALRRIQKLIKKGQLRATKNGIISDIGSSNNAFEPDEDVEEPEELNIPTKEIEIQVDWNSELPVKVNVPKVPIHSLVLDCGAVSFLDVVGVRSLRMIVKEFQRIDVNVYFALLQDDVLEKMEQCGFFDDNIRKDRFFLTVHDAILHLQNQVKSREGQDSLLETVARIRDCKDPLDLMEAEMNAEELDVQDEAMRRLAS

[8] = target: T8, SLC26A4-Ct L539A, yeast two-hybrid bait (mouse) (UniProt Q9R155); experiment: as above
T8 sequence: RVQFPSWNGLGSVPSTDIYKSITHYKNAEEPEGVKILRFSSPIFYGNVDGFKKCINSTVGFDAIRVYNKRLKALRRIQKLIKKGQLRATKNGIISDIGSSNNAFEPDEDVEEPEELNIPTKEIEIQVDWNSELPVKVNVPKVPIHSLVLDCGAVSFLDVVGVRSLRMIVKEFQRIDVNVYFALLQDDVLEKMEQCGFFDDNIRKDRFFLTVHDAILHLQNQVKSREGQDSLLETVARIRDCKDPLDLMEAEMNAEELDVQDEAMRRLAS

[9] = target: T6, cytosolic C-terminal region of mouse SLC26A4 (SLC26A4-Ct, residues 512 to 780), yeast two-hybrid bait (mouse); experiment: two-hybrid; yeast two-hybrid screen (ULTImate Y2H, Hybrigenics Services); SLC26A4-Ct as bait against a prey library of cDNA from 8- to 10-week-old mouse kidneys
[10] = target: T9, mCh-MYO10-SLC26A4-Ct with all four Y530A, Y536A, Y556A, and Y691A substitutions (NanoSPD bait) (mouse) (UniProt Q9R155); experiment: NanoSPD (nanoscale pulldown); HeLa cells coexpressing mCherry-MYO10-fused SLC26A4-Ct bait and EGFP-fused μ2 prey; prey fluorescence at filopodia tips quantified
T9 sequence: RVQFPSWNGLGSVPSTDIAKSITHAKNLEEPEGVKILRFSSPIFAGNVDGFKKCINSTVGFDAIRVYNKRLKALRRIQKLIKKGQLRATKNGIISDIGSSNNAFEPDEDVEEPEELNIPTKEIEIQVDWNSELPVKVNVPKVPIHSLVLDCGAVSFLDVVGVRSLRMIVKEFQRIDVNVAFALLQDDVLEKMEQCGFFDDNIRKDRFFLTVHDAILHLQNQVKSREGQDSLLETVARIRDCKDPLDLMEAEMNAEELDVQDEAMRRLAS

[11] = target: T10, mCh-MYO10-SLC26A4-Ct L539A (NanoSPD bait) (mouse) (UniProt Q9R155); experiment: as above
T10 sequence: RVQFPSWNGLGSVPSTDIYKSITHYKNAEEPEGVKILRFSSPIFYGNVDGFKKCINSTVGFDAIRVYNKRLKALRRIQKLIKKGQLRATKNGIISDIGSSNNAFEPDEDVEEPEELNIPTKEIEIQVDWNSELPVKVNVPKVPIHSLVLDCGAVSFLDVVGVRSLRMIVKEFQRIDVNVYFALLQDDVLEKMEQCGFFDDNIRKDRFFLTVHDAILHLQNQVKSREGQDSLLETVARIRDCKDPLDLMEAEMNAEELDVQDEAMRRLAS

[12] = target: T11, mCh-MYO10-SLC26A4-Ct with Y536 intact and the three other tyrosine residues mutated to alanine (Y530A, Y556A, Y691A; NanoSPD bait) (mouse) (UniProt Q9R155); experiment: as above
T11 sequence: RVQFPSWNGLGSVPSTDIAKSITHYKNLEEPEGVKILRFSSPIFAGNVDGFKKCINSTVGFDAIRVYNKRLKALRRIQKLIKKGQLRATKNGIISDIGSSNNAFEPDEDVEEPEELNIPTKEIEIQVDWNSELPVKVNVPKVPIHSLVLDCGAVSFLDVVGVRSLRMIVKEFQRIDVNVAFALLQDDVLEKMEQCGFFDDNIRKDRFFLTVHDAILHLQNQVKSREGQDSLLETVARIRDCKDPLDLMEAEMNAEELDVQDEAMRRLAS

[13] = target: T12, mCh-MYO10-SLC26A4-Ct Y536A (NanoSPD bait) (mouse) (UniProt Q9R155); experiment: as above
T12 sequence: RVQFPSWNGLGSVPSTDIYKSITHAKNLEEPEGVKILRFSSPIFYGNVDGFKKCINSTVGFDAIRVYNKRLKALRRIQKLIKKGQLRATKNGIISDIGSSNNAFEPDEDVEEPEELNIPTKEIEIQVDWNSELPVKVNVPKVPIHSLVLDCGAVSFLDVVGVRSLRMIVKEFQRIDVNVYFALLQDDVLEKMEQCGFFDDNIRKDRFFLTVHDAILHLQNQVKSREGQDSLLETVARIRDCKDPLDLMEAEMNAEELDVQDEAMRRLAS

[14] = target: EGFP-MYO10-μ2-FL (NanoSPD bait of the reciprocal experiments) (mouse) (UniProt P84091); experiment: NanoSPD (nanoscale pulldown); reciprocal format: HeLa cells coexpressing EGFP-MYO10-fused μ2 bait and mCherry-SLC26A4-Ct prey; prey fluorescence at filopodia tips quantified
[15] = target: EGFP-MYO10-μ2-MID (NanoSPD bait of the reciprocal experiments) (mouse) (UniProt P84091); experiment: as above

Molecule: μ2 C-terminal domain fused to EGFP (μ2-Ct-EGFP, residues 170 to 435; NanoSPD prey) (from UniProt P84091 170-435) (domain or fragment)
binding [1]: binds

Molecule: μ2 subunit of the AP-2 complex, minimum interacting domain (μ2-MID, residues 124 to 435), yeast two-hybrid prey (from UniProt P84091 124-435) (domain or fragment)
binding [2]: binds
binding [3]: no binding
binding [4]: no binding
binding [5]: binds
binding [6]: binds
binding [7]: binds
binding [8]: no binding
binding [9]: binds

Molecule: μ2 subunit of the AP-2 complex, prey fragment residues 93 to 435 (yeast two-hybrid screen clones) (from UniProt P84091 93-435) (domain or fragment)
binding [9]: binds

Molecule: μ2-MID-EGFP (NanoSPD prey) (from UniProt P84091 124-435) (domain or fragment)
binding [10]: no binding
binding [1]: binds
binding [11]: no binding
binding [12]: binds
binding [13]: no binding

Next, values leading:

binding [6]: no binding
Molecule: μ2-MID D176A/W421S, yeast two-hybrid prey (from UniProt P84091 124-435) (domain or fragment)

binding [6]: no binding
Molecule: μ2-MID F174S/D176A, yeast two-hybrid prey (from UniProt P84091 124-435) (domain or fragment)

binding [14]: binds
binding [15]: binds
B1: mCherry-SLC26A4-Ct (NanoSPD prey of the reciprocal experiments) (domain or fragment, UniProt Q9R155 512-780)
chain: RVQFPSWNGLGSVPSTDIYKSITHYKNLEEPEGVKILRFSSPIFYGNVDGFKKCINSTVGFDAIRVYNKRLKALRRIQKLIKKGQLRATKNGIISDIGSSNNAFEPDEDVEEPEELNIPTKEIEIQVDWNSELPVKVNVPKVPIHSLVLDCGAVSFLDVVGVRSLRMIVKEFQRIDVNVYFALLQDDVLEKMEQCGFFDDNIRKDRFFLTVHDAILHLQNQVKSREGQDSLLETVARIRDCKDPLDLMEAEMNAEELDVQDEAMRRLAS
